Results are given in words; binding and its absence hold for the method and conditions named. Some entries that bind do so weakly or less than the wild type. Where a sequence is shown, tags or fusion partners need not be part of it.
T1: RPA1A (replication protein A 1A), yeast two-hybrid fusion (Arabidopsis thaliana) (UniProt Q9SKI4)
T1 sequence: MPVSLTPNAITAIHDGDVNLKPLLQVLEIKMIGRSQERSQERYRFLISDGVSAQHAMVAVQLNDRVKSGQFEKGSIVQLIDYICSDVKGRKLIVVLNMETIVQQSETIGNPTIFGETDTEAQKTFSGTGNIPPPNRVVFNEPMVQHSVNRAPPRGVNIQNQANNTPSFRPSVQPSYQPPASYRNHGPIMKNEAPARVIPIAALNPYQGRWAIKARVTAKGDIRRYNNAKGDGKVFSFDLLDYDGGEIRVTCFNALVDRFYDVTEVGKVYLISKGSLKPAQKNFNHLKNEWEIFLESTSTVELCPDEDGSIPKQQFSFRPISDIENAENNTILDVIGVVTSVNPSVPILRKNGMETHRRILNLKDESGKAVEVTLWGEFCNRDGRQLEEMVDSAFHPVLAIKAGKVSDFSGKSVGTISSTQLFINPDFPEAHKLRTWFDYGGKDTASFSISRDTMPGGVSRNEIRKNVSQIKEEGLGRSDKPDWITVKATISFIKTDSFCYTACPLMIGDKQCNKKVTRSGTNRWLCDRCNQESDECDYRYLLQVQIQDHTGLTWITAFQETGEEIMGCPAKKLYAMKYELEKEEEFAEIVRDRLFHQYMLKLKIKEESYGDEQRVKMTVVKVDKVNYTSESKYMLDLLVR

Protein sequences, listed by entry. Tags and fused reporters are not part of them.
UniProt Q96704: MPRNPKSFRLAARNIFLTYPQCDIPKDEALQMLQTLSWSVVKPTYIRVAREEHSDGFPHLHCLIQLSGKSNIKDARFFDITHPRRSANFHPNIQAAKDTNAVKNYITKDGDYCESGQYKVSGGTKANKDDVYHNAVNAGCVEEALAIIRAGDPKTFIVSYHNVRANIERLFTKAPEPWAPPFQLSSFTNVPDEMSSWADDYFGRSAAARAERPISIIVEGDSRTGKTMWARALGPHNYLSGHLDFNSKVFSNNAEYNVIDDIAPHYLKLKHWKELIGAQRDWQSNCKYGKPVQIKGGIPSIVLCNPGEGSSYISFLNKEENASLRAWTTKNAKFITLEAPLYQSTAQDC
UniProt Q9M7Q7: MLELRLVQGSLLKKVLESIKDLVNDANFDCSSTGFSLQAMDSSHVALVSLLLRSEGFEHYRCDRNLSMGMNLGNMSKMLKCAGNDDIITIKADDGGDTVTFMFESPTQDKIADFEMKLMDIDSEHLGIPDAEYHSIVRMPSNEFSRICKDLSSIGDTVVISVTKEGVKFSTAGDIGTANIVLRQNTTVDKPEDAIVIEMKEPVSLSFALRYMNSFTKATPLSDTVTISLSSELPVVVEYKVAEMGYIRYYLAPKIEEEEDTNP

T2: RAD51 (Arabidopsis radiation sensitive 51), yeast two-hybrid fusion (Arabidopsis thaliana) (UniProt P94102)
T2 sequence: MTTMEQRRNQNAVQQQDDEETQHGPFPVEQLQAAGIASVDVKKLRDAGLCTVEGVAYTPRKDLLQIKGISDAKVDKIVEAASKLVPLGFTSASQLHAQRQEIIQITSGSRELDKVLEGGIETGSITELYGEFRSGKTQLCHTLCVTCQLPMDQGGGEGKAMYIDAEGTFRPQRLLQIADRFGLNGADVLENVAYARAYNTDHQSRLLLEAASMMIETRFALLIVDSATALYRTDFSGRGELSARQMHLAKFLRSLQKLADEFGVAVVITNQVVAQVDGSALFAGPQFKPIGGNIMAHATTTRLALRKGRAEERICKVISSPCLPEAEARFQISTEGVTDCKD


Experiments:
Experiment in all cases: two-hybrid; Gold Yeast Two-Hybrid System (Clontech); pGADT7 and pGBKT7 fusions co-transformed into yeast strain AH109; growth on medium minus Leu, Trp, His, Ade; 28 °C
[1] = target: Rep (replication protein encoded by Cabbage Leaf Curl Virus), yeast two-hybrid bait (Cabbage Leaf Curl Virus (CaLCuV)) (UniProt Q96704)
[2] = target: T1, RPA1A (replication protein A 1A), yeast two-hybrid fusion (Arabidopsis thaliana)
[3] = target: T2, RAD51 (Arabidopsis radiation sensitive 51), yeast two-hybrid fusion (Arabidopsis thaliana)

| Molecule | binding [1] | binding [2] | binding [3] |
| --- | --- | --- | --- |
| PCNA1 (proliferating cell nuclear antigen 1), yeast two-hybrid fusion (from UniProt Q9M7Q7 1-263) | binds |  |  |
| RPA1A (replication protein A 1A), yeast two-hybrid fusion (protein, UniProt Q9SKI4 1-640) MPVSLTPNAITAIHDGDVNLKPLLQVLEIKMIGRSQERSQERYRFLISDGVSAQHAMVAVQLNDRVKSGQFEKGSIVQLIDYICSDVKGRKLIVVLNMETIVQQSETIGNPTIFGETDTEAQKTFSGTGNIPPPNRVVFNEPMVQHSVNRAPPRGVNIQNQANNTPSFRPSVQPSYQPPASYRNHGPIMKNEAPARVIPIAALNPYQGRWAIKARVTAKGDIRRYNNAKGDGKVFSFDLLDYDGGEIRVTCFNALVDRFYDVTEVGKVYLISKGSLKPAQKNFNHLKNEWEIFLESTSTVELCPDEDGSIPKQQFSFRPISDIENAENNTILDVIGVVTSVNPSVPILRKNGMETHRRILNLKDESGKAVEVTLWGEFCNRDGRQLEEMVDSAFHPVLAIKAGKVSDFSGKSVGTISSTQLFINPDFPEAHKLRTWFDYGGKDTASFSISRDTMPGGVSRNEIRKNVSQIKEEGLGRSDKPDWITVKATISFIKTDSFCYTACPLMIGDKQCNKKVTRSGTNRWLCDRCNQESDECDYRYLLQVQIQDHTGLTWITAFQETGEEIMGCPAKKLYAMKYELEKEEEFAEIVRDRLFHQYMLKLKIKEESYGDEQRVKMTVVKVDKVNYTSESKYMLDLLVR | binds |  |  |
| CYCB1;1 (B1 type cyclin), yeast two-hybrid fusion (protein, UniProt P30183 1-428) MMTSRSIVPQQSTDDVVVVDGKNVAKGRNRQVLGDIGNVVRGNYPKNNEPEKINHRPRTRSQNPTLLVEDNLKKPVVKRNAVPKPKKVAGKPKVVDVIEISSDSDEELGLVAAREKKATKKKATTYTSVLTARSKAACGLEKKQKEKIVDIDSADVENDLAAVEYVEDIYSFYKSVESEWRPRDYMASQPDINEKMRLILVEWLIDVHVRFELNPETFYLTVNILDRFLSVKPVPRKELQLVGLSALLMSAKYEEIWPPQVEDLVDIADHAYSHKQILVMEKTILSTLEWYLTVPTHYVFLARFIKASIADEKMENMVHYLAELGVMHYDTMIMFSPSMVAASAIYAARSSLRQVPIWTSTLKHHTGYSETQLMDCAKLLAYQQWKQQEEGSESSTKGALRKKYSKDERFAVALIPPAKALLTGTESA |  | no binding | binds |
| BRCA1 (breast cancer susceptibility gene 1), yeast two-hybrid fusion (protein, UniProt Q8RXD4 1-941) MADTSHLERMGRELKCPICLSLYNSAVSLSCNHVFCNACIVKSMKMDATCPVCKIPYHRREIRGAPHMDSLVSIYKNMEDASGIKLFVSQNNPSPSDKEKQVRDASVEKASDKNRQGSRKGRASKRNEYGKTKEIDVDAPGPIVMKPSSQTKKRVQLLQNLSAESLTKPTESVETAEKPKDYTENTVIRLDEHPSLNKEGNLSPFFWLRDEDDGENSSQRTESDQLLGTTPVNVPSFSDLMDSDHESPSKEDEQQKPNPGDMFDSEMFEWTQRPCSPEILPSPVKAKVLGRDEIDLTQKKLPKVKVASSKCKNRKAGSARNTVARRSIGVSQEDNMESSAAATISEQQDSRGTSGTIIRNDVNTDENVKAKRATRSKAQSTRVQSDLNVSNEADGKQGTKRKRSSIKSSPAHPIAGPNELSLGTEIVGKGDQDQAHGPSDTHPEKRSPTEKPSLKKRGRKSNASSSLKDLSGKTQKKTSEKKLKLDSHMISSKATQPHGNGILTAGLNQGGDKQDSRNNRKSTVGKDDHTMQVIEKCSTINKSSSGGSAHLRRCNGSLTKKFTCAFCQCSEDTEASGEMTHYYRGEPVSADFNGGSKVIHVHKNCAEWAPNVYFNDLTIVNLDVELTRSRRISCSCCGLKGAALGCYNKSCKNSFHVTCAKLIPECRWDNVKFVMLCPLDASIKLPCEEANSKDRKCKRTPKEPLHSQPKQVSGKANIRELHIKQFHGFSKKLVLSCSGLTVEEKTVIAEFAELSGVTISKNWDSTVTHVIASINENGACKRTLKFMMAILEGKWILTIDWIKACMKNTKYVSEEPYEITMDVHGIREGPYLGRQRALKKKPKLFTGLKFYIMGDFELAYKGYLQDLIVAAGGTILRRRPVSSDDNEASTIVVFSVEPSKKKTLTQRRSDAEALAKSARARAASSSWVLDSIAGCQILVLI |  | no binding | binds |
| RAD51 (Arabidopsis radiation sensitive 51), yeast two-hybrid fusion (protein, UniProt P94102 1-342) MTTMEQRRNQNAVQQQDDEETQHGPFPVEQLQAAGIASVDVKKLRDAGLCTVEGVAYTPRKDLLQIKGISDAKVDKIVEAASKLVPLGFTSASQLHAQRQEIIQITSGSRELDKVLEGGIETGSITELYGEFRSGKTQLCHTLCVTCQLPMDQGGGEGKAMYIDAEGTFRPQRLLQIADRFGLNGADVLENVAYARAYNTDHQSRLLLEAASMMIETRFALLIVDSATALYRTDFSGRGELSARQMHLAKFLRSLQKLADEFGVAVVITNQVVAQVDGSALFAGPQFKPIGGNIMAHATTTRLALRKGRAEERICKVISSPCLPEAEARFQISTEGVTDCKD | binds |  |  |

From publication PMC10657422
